Test results from PubChem BioAssay AID485294 (National Center for Advancing Translational Sciences (NCATS), 2010).
The whole screen tested about 370,000 compounds, of which about 150 (0.041%) were called active. The inconclusive results got no clear call from the source; some entries with a clear call stand among them for comparison. Calls follow the shape of the dose curve; as a rule, active = well fitted inhibition curve with a large enough effect; inconclusive = small, poorly fitted or top-dose-only effect; inactive = flat fitted curve, though single readings scatter. Potencies of inconclusive entries are left out as doubtful fits.

Target: Beta-lactamase (Escherichia coli (strain K12)) (UniProt P00811)
UniProt P00811, sequence (P00811 whole entry, looked up): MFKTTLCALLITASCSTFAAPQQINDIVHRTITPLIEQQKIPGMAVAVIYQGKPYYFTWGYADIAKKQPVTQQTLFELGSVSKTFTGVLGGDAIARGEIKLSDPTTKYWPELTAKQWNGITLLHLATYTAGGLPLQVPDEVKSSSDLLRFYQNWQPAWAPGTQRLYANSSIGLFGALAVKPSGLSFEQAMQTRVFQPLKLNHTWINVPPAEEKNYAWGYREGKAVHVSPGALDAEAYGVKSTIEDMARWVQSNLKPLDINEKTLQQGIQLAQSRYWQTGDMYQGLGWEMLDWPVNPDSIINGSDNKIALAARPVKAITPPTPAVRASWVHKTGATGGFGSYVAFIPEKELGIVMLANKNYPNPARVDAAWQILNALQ
Experiment: qHTS Inhibitors of AmpC Beta-Lactamase (assay with detergent); also: nearly all actives have a fitted effect of over 25% in size;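 as to activity change, negative = inhibition: 0% = no-compound wells and -100% = no-enzyme wells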
Conditions: AmpC hydrolysis of nitrocefin, absorbance 480 nm, 0.01% Triton; activity change, negative = inhibition: at 114 µM (top of the series)
Summary of the method: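 AmpC (5.3 nM in the dispensed reagent) in 20 mM phosphate pH 7.0 with 0.01% (detergent screen) or 0.0001% Triton X-100 was preincubated with compounds for 15 min at room temperature. Nitrocefin was then added from an 800 uM solution, and hydrolysis was followed at 480 nm.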
Potency is read from the fitted curve at half-maximal effect; tags tell the direction and shape of the fitted curve.

Row | SMILES | Potency | activity change, negative = inhibition
1 | O=C(Nc1ccc(F)cc1)C(c1ccccc1)N1CCN(CC(=O)N2CCOCC2)CC1 (stereo unspecified) | inconclusive [inhibitor, partial curve, poor fit] | 
2 | CC1CCN(CCc2nc3cc(NS(=O)(=O)c4ccc(F)cc4)ccc3n2C)CC1 | inconclusive [inhibitor, full curve] | 
3 | Oc1ccc(Oc2ccc(Oc3ccc(O)cc3)cc2)cc1 | inconclusive [inhibitor, partial curve, poor fit] | 
4 | COCCCNS(=O)(=O)c1ccc2c3c(cccc13)C(=O)S2 | inconclusive [inhibitor, single point] | 
5 | COc1ccc(-n2nc(C(=O)NCC(=O)NCc3ccc(F)cc3)c3ccccc3c2=O)cc1OC | inconclusive [inhibitor, partial curve] | 
6 | Cc1ccc(NC(=O)CC2SC3=NCCCN3C2=O)c(C)c1 (stereo unspecified) |  | inactive: -13.9%
7 | CCCCN1CC(c2nc3ccccc3n2CCCCOc2cc(C)ccc2C)CC1=O (stereo unspecified) |  | inactive: -3.03%
8 | O=C(N/N=C/c1cccc2ccccc12)c1ccncc1 | inconclusive [inhibitor, partial curve, poor fit] | 
9 | COC(=O)c1cc2c(s1)-c1ccccc1CC2 | inconclusive [inhibitor, full curve, poor fit] | 
10 | Cc1ccc(NC(=S)N2CCCC2)cc1 |  | inactive: 0.633%
11 | CCc1nc2ccc(C(=O)NCCc3ccccc3OC)cc2nc1CC | inconclusive [inhibitor, full curve] | 
12 | CC(OC(=O)CCN=C1NS(=O)(=O)c2ccccc21)C(=O)Nc1ccc(F)cc1 (stereo unspecified) | inconclusive [inhibitor, single point] | 
13 | CCC(=O)N1CCc2cc(S(=O)(=O)CCC(=O)N3CCN(c4ccccc4)CC3)ccc21 | inconclusive [inhibitor, partial curve] | 
14 | CC(O)CNc1nc2sc3c(c2c(=O)n1CCc1ccccc1)CCCCC3 (stereo unspecified) | inconclusive [inhibitor, partial curve] | 
15 | C#CCOCCOCCOCCNc1nc(N2CCN(C(=O)CCCCCCCCCCNC(=O)[C@H](CCCCN)n3cc(C)nn3)CC2)nc(N2CCN(C(=O)CCCCCCCCCCNC(=O)[C@@H]([C@H](C)CC)n3cc(CCCCCN)nn3)CC2)n1 |  | inactive: -13.1%
16 | O=C(c1cc(Cl)c(=O)n(Cc2ccccc2)c1)N1CCOCC1 | inconclusive [inhibitor, partial curve] | 
17 | CN(c1ccc(-c2csc(NC(=O)C3CC(=O)N(Cc4ccco4)C3)n2)cc1)S(C)(=O)=O (stereo unspecified) |  | inactive: -17.9%
18 | Clc1cccc(Cl)c1Cn1c(-c2cccnc2Cl)nc2ccccc21 | inconclusive [inhibitor, full curve] | 
19 | CC(C)(C)C(=O)NC(=S)Nc1ccc(F)cc1 |  | inactive: 10.9%
20 | Cc1c(NC(=O)c2cc(CC(C)C)on2)c(=O)n(-c2ccccc2)n1C | inconclusive [inhibitor, full curve, poor fit] | 
21 | O=C(NCC(=O)N1CCCCCCC1)c1ccccc1Cl | inconclusive [inhibitor, full curve, poor fit] | 
22 | O=S1(=O)CCN2C=C(Cl)C=C(Cl)C2=N1 | inconclusive [inhibitor, single point] | 

Row | SMILES | Potency | activity change, negative = inhibition
23 | O=C(CCNC(=O)Cn1cnc2ccccc2c1=O)NCC1COc2ccccc2O1 (stereo unspecified) | inconclusive [inhibitor, full curve, poor fit] | 
24 | CCOC(=O)CSc1nnc(Cc2cc(=O)[nH]c(=O)[nH]2)n1-c1ccc(Cl)cc1 | inconclusive [inhibitor, full curve, poor fit] | 
25 | COc1ccc(-c2noc(CSCC(=O)Nc3cc(OC)c(OC)c(OC)c3)n2)cc1OC |  | inactive: 11.5%
26 | COc1cccc(NC(=S)N/N=C2\CC3CCC2(C)C3(C)C)c1 (stereo unspecified) | inconclusive [inhibitor, full curve] | 
27 | COc1cc(C(=O)NCC(c2ccc3c(c2)OCO3)N2CCOCC2)cc(OC)c1OC (stereo unspecified) |  | inactive: -2.48%
28 | NS(=O)(=O)c1ccc(CNC(=O)/C=C/c2ccco2)cc1 |  | inactive: 4.43%
29 | O=C(Cn1nc(-c2ccccc2)oc1=O)OCC(=O)c1ccc(F)c(F)c1 | inconclusive [inhibitor, full curve, poor fit] | 
30 | Cc1ccc(OCC(=O)Oc2ccc(C(C)C)cc2)cc1 | inconclusive [inhibitor, full curve, poor fit] | 
31 | COc1ccc(C)c2sc(NC(=O)C3=COCCO3)nc12 | inconclusive [inhibitor, partial curve, poor fit] | 
32 | NCCC(=O)NCCc1cnc[nH]1 | inconclusive [inhibitor, partial curve] | 
33 | CC(C)(C)Cc1nnc(NS(=O)(=O)Cc2ccccc2)s1 | inconclusive [inhibitor, full curve, poor fit] | 
34 | Cc1cccc(NC(=S)NCC2CCCO2)c1 (stereo unspecified) |  | inactive: -0.819%
35 | CN(C(=O)CCc1nc(-c2ccccc2F)no1)c1ccc(Cl)cc1 |  | inactive: 0.282%
36 | CCCCc1c(O)nc(SCC(=O)NCC2CCCO2)[nH]c1=O (stereo unspecified) | inconclusive [inhibitor, full curve] | 
37 | CCN(CC)S(=O)(=O)c1ccc(NC(=O)[C@@H](NC(=O)c2cc(OC)cc(OC)c2)C(C)C)cc1 | inconclusive [inhibitor, full curve, poor fit] | 
38 | COc1ccc(/C=N/Nc2ccccc2C(=O)O)cc1 | inconclusive [inhibitor, full curve, poor fit] | 
39 | COCCNC(=O)c1cnc2sc(N3CCCCC3)nn2c1=O |  | inactive: -7.38%
40 | Cc1ccc(Cn2c(SCc3ccc(C(=O)NC4CCCCC4)cc3)nc3ccncc32)cc1 |  | inactive: 0.888%
41 | CCN1CCc2c(sc(N)c2C#N)C1 | inconclusive [inhibitor, partial curve] | 
42 | CCCn1c(N)nc2ccccc21 | inconclusive [inhibitor, full curve, poor fit] | 
43 | CC(=O)c1cccc(-n2c(CCC(=O)O)ccc2-c2ccc(C)cc2)c1 |  | inactive: 3.87%
44 | CCN(Cc1ccccc1)S(=O)(=O)c1ccc(S(=O)(=O)N(Cc2ccccn2)Cc2ccco2)cc1 | inconclusive [inhibitor, single point] | 

Row | SMILES | Potency | activity change, negative = inhibition
45 | CCOc1ccc(N(CC)C(=O)COc2cc(=O)n(C)c3ccccc23)cc1 | inconclusive [inhibitor, full curve] | 
46 | COc1cccc(NS(=O)(=O)c2ccc3c(c2)n(C)c(=O)n3C)c1 |  | inactive: 9.21%
47 | Cc1cccc2cc(CN(Cc3nnnn3C3CCCCC3)C3CCCC3)c3nnnn3c12 |  | inactive: 0.906%
48 | O=C(NCCc1ccc(Cl)cc1)c1ccc(Br)s1 | inconclusive [inhibitor, full curve] | 
49 | COc1ccc(OC)c(NC(=O)N[C@@H](Cc2ccccc2)C(=O)O)c1 | inconclusive [inhibitor, full curve, poor fit] | 
50 | C#CCOCCOCCOCCNc1nc(N2CCN(C(=O)CCCCCCCCCCNC(=O)[C@@H](CCSC)n3cc(CCO)nn3)CC2)nc(N2CCN(C(=O)CCCCCCCCCCNC(=O)[C@H]([C@@H](C)CC)n3cc(CCCCN=C(N)N)nn3)CC2)n1 | inconclusive [inhibitor, single point] | 
51 | O=C(O)c1ccc(NC(=O)c2ccc3c(c2)C(=O)N(c2ccccc2)C3=O)cc1 |  | inactive: -3.64%
52 | CCOc1ccc(S(=O)(=O)Nc2cc(S(=O)(=O)N(CC)CC)ccc2N2CCCC2)cc1 | inconclusive [inhibitor, full curve, poor fit] | 
53 | COc1ccc(NC(=O)N(C2CCCCC2)C2CCN(C(C)C)CC2)c(OC)c1 | inconclusive [inhibitor, partial curve] | 
54 | O=C(COc1ccc(Cl)cc1Cl)NCCCN1CCOCC1 | inconclusive [inhibitor, partial curve] | 
55 | CCn1c(SCC(=O)N/N=C/c2ccc(C)o2)nnc1-c1ccc(C)cc1 | inconclusive [inhibitor, full curve] | 
56 | c1ccc(CNCCN2CCNCC2)nc1 | inconclusive [inhibitor, full curve, poor fit] | 
57 | O=C(Nc1nnc(SCc2ccccc2)s1)c1cccs1 |  | inactive: 2.23%
58 | COc1ccc(/C=C2/C(=N)N3N=C(CC(=O)N4CCCC4)SC3=NC2=O)cc1OC | inconclusive [inhibitor, partial curve] | 
59 | COc1ccc(/C=N/Nc2cc(C)nc(-n3nc(C)cc3C)n2)cc1 | inconclusive [inhibitor, full curve] | 
60 | COc1cc(-c2nc3n(c(=O)c2C#N)CCS3)cc(OC)c1OC | inconclusive [inhibitor, partial curve, poor fit] | 
61 | O=C(NCCc1ccccc1)c1cnn2c(C(F)F)cc(C3CC3)nc12 | inconclusive [inhibitor, partial curve] | 
62 | O=S(=O)(Nc1ccccn1)c1ccc(Br)cc1 | inconclusive [inhibitor, full curve] | 
63 | Cc1ccc(C(C)C)c(OCC#CCN2CCOCC2)c1 | inconclusive [inhibitor, partial curve, poor fit] | 
64 | S=C(c1ccc(Br)cc1)N1CCN(Cc2ccccc2)CC1 |  | inactive: -15.9%
65 | CCN(CC(=O)Nc1c(F)cccc1F)C(=O)CSCc1c(C)noc1C | inconclusive [inhibitor, full curve, poor fit] | 
66 | COc1ccc(S(=O)(=O)N2CCOC2CNC(=O)C(=O)NCCc2c[nH]c3ccccc23)cc1 (stereo unspecified) | inconclusive [inhibitor, full curve, poor fit] | 
